Assay results taken from a collection of fitness landscapes (doi:10.1016/j.celrep.2020.107928).
Over roughly 81,000 sequences, “one-hybrid fitness for binding NBS DNA” has its median near -0.1; the highest 2% begin near 0.36. This is one part of the list.

B1: Caulobacter ParB omega fusion; a variant is named by its letters at X, in order, B8GW30 (parent)
chain: MESVVVGEPGMSEGRRGLGRGLSALLGEVDAAPAQAPGEQLGGSREAPIEILQRNPDQPRRTFREEDLEDLSNSIREKGVLQPILVRPSPDTAGEYQIVAGERAWRAAQRAGLKTVPIMVRELDDLAVLEIGIIENVQRADLNVLEEALSYKVLMEKFERTQENIAQTIGKSXSHVANXMRLLXLPDEVQSYLVSGELTAXHARAIAAAADPVALAKQIIEGGLSVRETEALARKAPNLSAGKSKGGRPPRVKDTDTQALESDLSSVLGLDVSIDHRGSTGTLTITYATLEQLDDLCNRLTRGI

Variants of: B1
Assay: one-hybrid fitness for binding NBS DNA (the Noc-binding site; scaled: cognate 1, non-cognate 0); higher = stronger binding
Conditions: with NBS DNA site
Summary of the method: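 Fitness is the rescaled log change in variant-to-wild-type read ratio, measured by Illumina sequencing of plasmids before and after bacterial one-hybrid selection. The scale puts cognate at 1 and non-cognate at 0. Selection of Caulobacter ParB libraries, four specificity codons randomised, took place in E. coli USO with a HIS3 reporter, site 19 bp from the promoter, over 48 hours at 37°C on M9-minus-histidine with 0.1 mM IPTG and 5 mM 3-AT.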
ALCG was tested, and the “one-hybrid fitness for binding NBS DNA” value was ≤ 0.2.
In the case of WNWG, the “one-hybrid fitness for binding NBS DNA” value is reported as ≤ 0.2.
With MVCG the “one-hybrid fitness for binding NBS DNA” value was ≤ 0.2.
NVGR was tested, and the “one-hybrid fitness for binding NBS DNA” value was ≤ 0.2.
In the case of RSHI, the “one-hybrid fitness for binding NBS DNA” value is reported as ≤ 0.2.
With ENTL the “one-hybrid fitness for binding NBS DNA” value was ≤ 0.2.
SQTP was tested, and the “one-hybrid fitness for binding NBS DNA” value was ≤ 0.2.
In the case of NNDI, the “one-hybrid fitness for binding NBS DNA” value is reported as ≤ 0.2.
With RVVN the “one-hybrid fitness for binding NBS DNA” value was ≤ 0.2.
With LFSP the “one-hybrid fitness for binding NBS DNA” value was ≤ 0.2.
For VLQK, the “one-hybrid fitness for binding NBS DNA” value was ≤ 0.2.
In the case of TDAE, the “one-hybrid fitness for binding NBS DNA” value is reported as ≤ 0.2.
For PAMD, the “one-hybrid fitness for binding NBS DNA” value was ≤ 0.2.
With RVGT the “one-hybrid fitness for binding NBS DNA” value was 0.491.
In the case of HCGT, the “one-hybrid fitness for binding NBS DNA” value is reported as ≤ 0.2.
In the case of DKLF, the “one-hybrid fitness for binding NBS DNA” value is reported as ≤ 0.2.
For TAYL, the “one-hybrid fitness for binding NBS DNA” value was ≤ 0.2.
With PMVC the “one-hybrid fitness for binding NBS DNA” value was ≤ 0.2.
STNN was tested, and the “one-hybrid fitness for binding NBS DNA” value was ≤ 0.2.
NTPK was tested, and the “one-hybrid fitness for binding NBS DNA” value was ≤ 0.2.
DQPF was tested, and the “one-hybrid fitness for binding NBS DNA” value was ≤ 0.2.
PPVF was tested, and the “one-hybrid fitness for binding NBS DNA” value was ≤ 0.2.
For YQMR, the “one-hybrid fitness for binding NBS DNA” value was ≤ 0.2.
For ESHR, the “one-hybrid fitness for binding NBS DNA” value was ≤ 0.2.
CIRG was tested, and the “one-hybrid fitness for binding NBS DNA” value was ≤ 0.2.
For ALMF, the “one-hybrid fitness for binding NBS DNA” value was ≤ 0.2.
With NMAY the “one-hybrid fitness for binding NBS DNA” value was ≤ 0.2.
CSLV was tested, and the “one-hybrid fitness for binding NBS DNA” value was ≤ 0.2.
In the case of LHLC, the “one-hybrid fitness for binding NBS DNA” value is reported as ≤ 0.2.
With SSTD the “one-hybrid fitness for binding NBS DNA” value was ≤ 0.2.
For VKHA, the “one-hybrid fitness for binding NBS DNA” value was ≤ 0.2.
LAHR was tested, and the “one-hybrid fitness for binding NBS DNA” value was ≤ 0.2.
MKDF was tested, and the “one-hybrid fitness for binding NBS DNA” value was ≤ 0.2.
VNNT was tested, and the “one-hybrid fitness for binding NBS DNA” value was ≤ 0.2.
In the case of GLAG, the “one-hybrid fitness for binding NBS DNA” value is reported as ≤ 0.2.
With GPDD the “one-hybrid fitness for binding NBS DNA” value was ≤ 0.2.
For NRKH, the “one-hybrid fitness for binding NBS DNA” value was ≤ 0.2.
For NRTK, the “one-hybrid fitness for binding NBS DNA” value was ≤ 0.2.
KTHA was tested, and the “one-hybrid fitness for binding NBS DNA” value was ≤ 0.2.
In the case of SGFT, the “one-hybrid fitness for binding NBS DNA” value is reported as ≤ 0.2.
WTWT was tested, and the “one-hybrid fitness for binding NBS DNA” value was ≤ 0.2.
For RADL, the “one-hybrid fitness for binding NBS DNA” value was ≤ 0.2.
In the case of RRIL, the “one-hybrid fitness for binding NBS DNA” value is reported as ≤ 0.2.
With WMDS the “one-hybrid fitness for binding NBS DNA” value was ≤ 0.2.
In the case of WHVG, the “one-hybrid fitness for binding NBS DNA” value is reported as ≤ 0.2.
In the case of VFSM, the “one-hybrid fitness for binding NBS DNA” value is reported as ≤ 0.2.
For PAPA, the “one-hybrid fitness for binding NBS DNA” value was ≤ 0.2.
For PGTS, the “one-hybrid fitness for binding NBS DNA” value was ≤ 0.2.
In the case of ESGG, the “one-hybrid fitness for binding NBS DNA” value is reported as ≤ 0.2.
For RYDG, the “one-hybrid fitness for binding NBS DNA” value was ≤ 0.2.
In the case of HKKA, the “one-hybrid fitness for binding NBS DNA” value is reported as ≤ 0.2.
In the case of DTLS, the “one-hybrid fitness for binding NBS DNA” value is reported as ≤ 0.2.
RHWI was tested, and the “one-hybrid fitness for binding NBS DNA” value was ≤ 0.2.
For FGCS, the “one-hybrid fitness for binding NBS DNA” value was ≤ 0.2.
In the case of WEPV, the “one-hybrid fitness for binding NBS DNA” value is reported as ≤ 0.2.
In the case of QEDV, the “one-hybrid fitness for binding NBS DNA” value is reported as ≤ 0.2.
For QAQV, the “one-hybrid fitness for binding NBS DNA” value was ≤ 0.2.
In the case of VCFS, the “one-hybrid fitness for binding NBS DNA” value is reported as ≤ 0.2.
WNSC was tested, and the “one-hybrid fitness for binding NBS DNA” value was ≤ 0.2.
For HCTR, the “one-hybrid fitness for binding NBS DNA” value was ≤ 0.2.
GTRA was tested, and the “one-hybrid fitness for binding NBS DNA” value was ≤ 0.2.
With CARK the “one-hybrid fitness for binding NBS DNA” value was ≤ 0.2.
In the case of VHVR, the “one-hybrid fitness for binding NBS DNA” value is reported as ≤ 0.2.
With NLKT the “one-hybrid fitness for binding NBS DNA” value was ≤ 0.2.
For HRHE, the “one-hybrid fitness for binding NBS DNA” value was ≤ 0.2.
For PTYG, the “one-hybrid fitness for binding NBS DNA” value was ≤ 0.2.
With PAWK the “one-hybrid fitness for binding NBS DNA” value was ≤ 0.2.
SDVC was tested, and the “one-hybrid fitness for binding NBS DNA” value was ≤ 0.2.
SSGC was tested, and the “one-hybrid fitness for binding NBS DNA” value was ≤ 0.2.
For RYHI, the “one-hybrid fitness for binding NBS DNA” value was ≤ 0.2.
For EPTM, the “one-hybrid fitness for binding NBS DNA” value was ≤ 0.2.
In the case of RICY, the “one-hybrid fitness for binding NBS DNA” value is reported as ≤ 0.2.
In the case of SMLY, the “one-hybrid fitness for binding NBS DNA” value is reported as ≤ 0.2.
With GIHC the “one-hybrid fitness for binding NBS DNA” value was ≤ 0.2.
In the case of VKRW, the “one-hybrid fitness for binding NBS DNA” value is reported as ≤ 0.2.
YEKR was tested, and the “one-hybrid fitness for binding NBS DNA” value was ≤ 0.2.
In the case of TGVI, the “one-hybrid fitness for binding NBS DNA” value is reported as ≤ 0.2.
For RSKS, the “one-hybrid fitness for binding NBS DNA” value was 0.567.
For RYHD, the “one-hybrid fitness for binding NBS DNA” value was ≤ 0.2.
For NREC, the “one-hybrid fitness for binding NBS DNA” value was ≤ 0.2.
For PSVY, the “one-hybrid fitness for binding NBS DNA” value was ≤ 0.2.
For FHAR, the “one-hybrid fitness for binding NBS DNA” value was ≤ 0.2.
For EARK, the “one-hybrid fitness for binding NBS DNA” value was ≤ 0.2.
For PIHP, the “one-hybrid fitness for binding NBS DNA” value was ≤ 0.2.
For GMKI, the “one-hybrid fitness for binding NBS DNA” value was ≤ 0.2.
MFWS was tested, and the “one-hybrid fitness for binding NBS DNA” value was ≤ 0.2.
For NCAW, the “one-hybrid fitness for binding NBS DNA” value was ≤ 0.2.
SFHR was tested, and the “one-hybrid fitness for binding NBS DNA” value was ≤ 0.2.
YTHE was tested, and the “one-hybrid fitness for binding NBS DNA” value was ≤ 0.2.
RPKF was tested, and the “one-hybrid fitness for binding NBS DNA” value was ≤ 0.2.
For HLYV, the “one-hybrid fitness for binding NBS DNA” value was ≤ 0.2.
GFWM was tested, and the “one-hybrid fitness for binding NBS DNA” value was ≤ 0.2.
For PPFR, the “one-hybrid fitness for binding NBS DNA” value was ≤ 0.2.
In the case of ANHV, the “one-hybrid fitness for binding NBS DNA” value is reported as ≤ 0.2.
GLAM was tested, and the “one-hybrid fitness for binding NBS DNA” value was ≤ 0.2.
With LYAW the “one-hybrid fitness for binding NBS DNA” value was ≤ 0.2.
With RAHQ the “one-hybrid fitness for binding NBS DNA” value was ≤ 0.2.
GHPN was tested, and the “one-hybrid fitness for binding NBS DNA” value was ≤ 0.2.
MGLS was tested, and the “one-hybrid fitness for binding NBS DNA” value was ≤ 0.2.
With LWVR the “one-hybrid fitness for binding NBS DNA” value was ≤ 0.2.
With TAYT the “one-hybrid fitness for binding NBS DNA” value was ≤ 0.2.
With AVGL the “one-hybrid fitness for binding NBS DNA” value was ≤ 0.2.
APNG was tested, and the “one-hybrid fitness for binding NBS DNA” value was ≤ 0.2.
In the case of HFQS, the “one-hybrid fitness for binding NBS DNA” value is reported as ≤ 0.2.
For FQSA, the “one-hybrid fitness for binding NBS DNA” value was ≤ 0.2.
In the case of GGAT, the “one-hybrid fitness for binding NBS DNA” value is reported as ≤ 0.2.
With NLAP the “one-hybrid fitness for binding NBS DNA” value was ≤ 0.2.
In the case of RGIQ, the “one-hybrid fitness for binding NBS DNA” value is reported as ≤ 0.2.
PFMM was tested, and the “one-hybrid fitness for binding NBS DNA” value was ≤ 0.2.
In the case of WQRY, the “one-hybrid fitness for binding NBS DNA” value is reported as ≤ 0.2.
For TELG, the “one-hybrid fitness for binding NBS DNA” value was ≤ 0.2.
With WPNH the “one-hybrid fitness for binding NBS DNA” value was ≤ 0.2.
With PHDM the “one-hybrid fitness for binding NBS DNA” value was ≤ 0.2.
QEHL was tested, and the “one-hybrid fitness for binding NBS DNA” value was ≤ 0.2.
With HRQM the “one-hybrid fitness for binding NBS DNA” value was ≤ 0.2.
For SYDV, the “one-hybrid fitness for binding NBS DNA” value was ≤ 0.2.
In the case of KLQS, the “one-hybrid fitness for binding NBS DNA” value is reported as ≤ 0.2.
In the case of NVCC, the “one-hybrid fitness for binding NBS DNA” value is reported as ≤ 0.2.
With RYEN the “one-hybrid fitness for binding NBS DNA” value was ≤ 0.2.
For MAPW, the “one-hybrid fitness for binding NBS DNA” value was ≤ 0.2.
DETG was tested, and the “one-hybrid fitness for binding NBS DNA” value was ≤ 0.2.
RQFA was tested, and the “one-hybrid fitness for binding NBS DNA” value was ≤ 0.2.
STRS was tested, and the “one-hybrid fitness for binding NBS DNA” value was ≤ 0.2.
HIHC was tested, and the “one-hybrid fitness for binding NBS DNA” value was ≤ 0.2.
FSSG was tested, and the “one-hybrid fitness for binding NBS DNA” value was ≤ 0.2.
In the case of MSTM, the “one-hybrid fitness for binding NBS DNA” value is reported as ≤ 0.2.
With GKRV the “one-hybrid fitness for binding NBS DNA” value was ≤ 0.2.
For HMPG, the “one-hybrid fitness for binding NBS DNA” value was ≤ 0.2.
In the case of TMKW, the “one-hybrid fitness for binding NBS DNA” value is reported as ≤ 0.2.
In the case of HVSR, the “one-hybrid fitness for binding NBS DNA” value is reported as ≤ 0.2.
EYTG was tested, and the “one-hybrid fitness for binding NBS DNA” value was ≤ 0.2.
HRQY was tested, and the “one-hybrid fitness for binding NBS DNA” value was ≤ 0.2.
With HISE the “one-hybrid fitness for binding NBS DNA” value was ≤ 0.2.
In the case of NYWT, the “one-hybrid fitness for binding NBS DNA” value is reported as ≤ 0.2.
With NTTR the “one-hybrid fitness for binding NBS DNA” value was ≤ 0.2.
TAGK was tested, and the “one-hybrid fitness for binding NBS DNA” value was ≤ 0.2.
For CPIT, the “one-hybrid fitness for binding NBS DNA” value was ≤ 0.2.
For AVRM, the “one-hybrid fitness for binding NBS DNA” value was ≤ 0.2.
In the case of AIAS, the “one-hybrid fitness for binding NBS DNA” value is reported as ≤ 0.2.
In the case of CNGR, the “one-hybrid fitness for binding NBS DNA” value is reported as ≤ 0.2.
In the case of EHDS, the “one-hybrid fitness for binding NBS DNA” value is reported as ≤ 0.2.
VTNM was tested, and the “one-hybrid fitness for binding NBS DNA” value was ≤ 0.2.
With IRMF the “one-hybrid fitness for binding NBS DNA” value was ≤ 0.2.
In the case of QRDA, the “one-hybrid fitness for binding NBS DNA” value is reported as 0.394.
In the case of NLES, the “one-hybrid fitness for binding NBS DNA” value is reported as ≤ 0.2.
With TSLP the “one-hybrid fitness for binding NBS DNA” value was ≤ 0.2.
For ADNR, the “one-hybrid fitness for binding NBS DNA” value was ≤ 0.2.
RPYE was tested, and the “one-hybrid fitness for binding NBS DNA” value was ≤ 0.2.
With VLAT the “one-hybrid fitness for binding NBS DNA” value was ≤ 0.2.
RQLH was tested, and the “one-hybrid fitness for binding NBS DNA” value was ≤ 0.2.
In the case of EQNG, the “one-hybrid fitness for binding NBS DNA” value is reported as ≤ 0.2.
FPPW was tested, and the “one-hybrid fitness for binding NBS DNA” value was ≤ 0.2.
HPRM was tested, and the “one-hybrid fitness for binding NBS DNA” value was ≤ 0.2.
